# Measurements taken from the supplement of paper PMC12217912.
# This is one part of the list. The full chains were built here from the parent and the listed change. Inactive controls read about 0.05.
# B1: TEV protease; numbered along this chain (parent)
# chain: MGESLFKGPRDYNPISSSICHLTNESDGHTTSLYGIGFGPFIITNKHLFRRNNGTLVVQSLHGVFKVKDTTTLQQHLVDGRDMIIIRMPKDFPPFPQKLKFREPQREERICLVTTNFQTKSMSSMVSDTSCTFPSGDGIFWKHWIQTKDGQCGSPLVSTRDGFIVGIHSASNFTNTNNYFTSVPKNFMELLTNQEAQQWVSGWRLNADSVLWGGHKVFMVKPEEPFQPVKEATQL
# Variants of: B1
# Test: raw area under fraction-flipped curve 0-4 h after induction (AUC4h, not background-subtracted), DNA-recorder readout of cleavage of the substrate (dimensionless); higher = more cleavage of the substrate by the protease variant
# Details: temperature: 34 °C; time window: 0-4 h after rhamnose induction
# Protocol: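 In vivo DNA recorder in E. coli TOP10(DE3) ΔrhaA at 34 °C. Each TEVp single-site mutant (parent TEVp 0) is paired with a single-site variant of the 7-mer TEVs (canonical ENLYFQ|S). The substrate sits between flexible linkers in a Bxb1-sfGFP-TEVs-SsrA fusion, so cleavage stabilises Bxb1 and speeds flipping of a recombination array, read by NGS. The value is the raw area under the fraction-flipped curve over 0-4 h after rhamnose induction (AUC4h), with ≥20 reads per time point. It is not background-subtracted; inactive controls average about 0.047.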
# 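Further: Bxb1 expression induced with 0.2% (w/v) L-rhamnose at OD600 near 0.5, cultures sampled hourly, flipped fraction per protease–substrate barcode pair counted by paired-end Illumina sequencing.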
Variant,area with substrate EALYFQS,area with substrate ECLYFQS,area with substrate EDLYFQS,area with substrate EELYFQS,area with substrate EILYFQS,area with substrate EKLYFQS,area with substrate EMLYFQS,area with substrate EQLYFQS,area with substrate ESLYFQS,area with substrate EVLYFQS,area with substrate EFLYFQS,area with substrate EGLYFQS,area with substrate EHLYFQS,area with substrate EPLYFQS,area with substrate ERLYFQS,area with substrate ETLYFQS,area with substrate ELLYFQS,area with substrate EWLYFQS,area with substrate EYLYFQS
MGESLFKGPRDYNPISSSICHLTNESDGHTTSLYGIGFGPFIITNKHLFRRNNGTLVVQSLHGVFKVKDTTTLQQHLVDGRDMIIIRMPKDFPPFPQKLKFREPQREERICLVTTNFQTKSMSSMVSDTSCTFPSGDGIFWKHWIQTKDGQCGSPLVSTRDGFIVGIHSASNFTNTNNYFTSVLKNFMELLTNQEAQQWVSGWRLNADSVLWGGHKVFMVKPEEPFQPVKEATQL [P184L],0.0394,0.0805,0.073,0.0642,0.0536,0.0639,0.058,0.0668,0.0723,0.0735,–,–,–,–,–,–,–,–,–
MGESLFKGPRDYNPISSSICHLTNESDGHTTSLYGIGFGPFIITNKHLFRRNNGTLVVQSLHGVFKVKDTTTLQQHLVDGRDMIIIRMPKDFPPFPQKLKFREPQREERICIVTTNFQTKSMSSMVSDTSCTFPSGDGIFWKHWIQTKDGQCGSPLVSTRDGFIVGIHSASNFTNTNNYFTSVPKNFMELLTNQEAQQWVSGWRLNADSVLWGGHKVFMVKPEEPFQPVKEATQL [L112I],0.0861,–,0.141,0.0942,0.0726,–,0.107,0.0829,0.107,0.0875,0.0457,0.122,0.164,0.0858,0.136,0.117,–,–,–
MGESLFKGPRDYNPISSSICHLTNESDGHTTSLYGIGFGPFIITNKHLFRRNNGTLVVQSLHGVFKVKDTTTLQQHLVDGRDMIIIRMPKDFPPFPQKLKFREPQREERICNVTTNFQTKSMSSMVSDTSCTFPSGDGIFWKHWIQTKDGQCGSPLVSTRDGFIVGIHSASNFTNTNNYFTSVPKNFMELLTNQEAQQWVSGWRLNADSVLWGGHKVFMVKPEEPFQPVKEATQL [L112N],0.0838,0.0662,0.0943,0.0747,0.0877,0.0633,0.0702,–,0.0757,0.103,–,0.0803,–,–,0.0805,0.0813,0.0537,0.066,0.0822
MGESLFKGPRDYNPISSSICHLTNESDGHTTSLYGIGFGPFIITNKHLFRRNNGTLVVQSLHGVFKVKDTTTLQQHLVDGRDMIIIRMPKDFPPFPQKLKFREPQREERICLVTTNFQTKSMSSMVSDTSCTFPSGDGIFWKHWIQTKDGQCGSPLVSTRDGFIVGIHSASNFTNTNNYFTSVPKNFMELLTNQEAQQWVSGWRLNADSVLWGGHKVFMVKPEEPCQPVKEATQL [F226C],0.162,0.101,0.155,0.0926,0.0955,0.133,–,0.145,0.141,0.122,0.143,0.103,–,–,0.122,0.107,0.109,0.103,0.122
MGESLFKGPRDYNPISSSICHLTNESDGHTTSLYGIGFGPFIITNKHLFRRNNGTLVVQSLHGVFKVKDTTTLQQHLVDCRDMIIIRMPKDFPPFPQKLKFREPQREERICLVTTNFQTKSMSSMVSDTSCTFPSGDGIFWKHWIQTKDGQCGSPLVSTRDGFIVGIHSASNFTNTNNYFTSVPKNFMELLTNQEAQQWVSGWRLNADSVLWGGHKVFMVKPEEPFQPVKEATQL [G80C],0.121,0.0927,0.181,–,0.0996,0.0316,0.117,0.136,0.0911,0.093,–,0.102,0.123,0.102,–,–,0.0838,0.107,–
MGESLFKGPRDYNPISSSICHLTNESDGHTTSLYGIGFGLFIITNKHLFRRNNGTLVVQSLHGVFKVKDTTTLQQHLVDGRDMIIIRMPKDFPPFPQKLKFREPQREERICLVTTNFQTKSMSSMVSDTSCTFPSGDGIFWKHWIQTKDGQCGSPLVSTRDGFIVGIHSASNFTNTNNYFTSVPKNFMELLTNQEAQQWVSGWRLNADSVLWGGHKVFMVKPEEPFQPVKEATQL [P40L],0.102,–,0.0986,0.131,0.093,–,–,0.129,0.0944,0.102,0.0937,0.0966,0.0045,0.0669,–,0.0621,0.0858,–,–
MGESLFKGPRDYNPISSSICHLTNESDGHTTSLYGIGFGPFIITNKHLFRRNNGTLVVQSLHGVFKVKDTTTLQQHLVDGRDMIIIRMPKDFPPFPQKLKFREPQREERICLVTTNFQTKSMSSMVSDTSCTFPSGDGIFWKHWIQTKDGQCGSPLVSTRDGFIVGIHSASNFTNTNNYFTSVPKNFMELLTNQEAQQWVSGWRLNADSVLWGGHKVFMVKPEAPFQPVKEATQL [E224A],0.109,0.0783,–,0.122,0.0737,0.0979,0.0838,0.144,0.0935,0.0805,–,0.116,–,0.0782,0.0829,–,–,–,–
MGESLFKGPRDYNPISSSICHLTNESDGHTTSLYGIGFGPFIITNKHLFRRNNGTLVVQSLHGVFKVKDTTTLQQHLVDGRDMIIIRMPKDFPPFPQKLKFREPQREERICLVTTNFQTKSMSSMVSDTSCTFPSGDGIFWKHWIQTKDGQCGSPLVSTRDGFIVGIHSASNFTNTNNYFTSVPKNFMELLTNQEAQQWVSGWRLNADSVLWGGHKVFMVKPEWPFQPVKEATQL [E224W],0.108,0.0871,–,0.0992,0.0904,0.126,0.124,0.124,0.0898,0.085,0.0984,0.099,0.0674,0.105,0.109,0.123,0.0947,0.0854,–
MGESLFKKPRDYNPISSSICHLTNESDGHTTSLYGIGFGPFIITNKHLFRRNNGTLVVQSLHGVFKVKDTTTLQQHLVDGRDMIIIRMPKDFPPFPQKLKFREPQREERICLVTTNFQTKSMSSMVSDTSCTFPSGDGIFWKHWIQTKDGQCGSPLVSTRDGFIVGIHSASNFTNTNNYFTSVPKNFMELLTNQEAQQWVSGWRLNADSVLWGGHKVFMVKPEEPFQPVKEATQL [G8K],0.0982,–,–,–,0.0907,0.108,–,–,0.107,–,0.121,0.0553,–,–,0.122,–,–,–,–
MGESLFKGPRDYNPISSSICHLTNESDLHTTSLYGIGFGPFIITNKHLFRRNNGTLVVQSLHGVFKVKDTTTLQQHLVDGRDMIIIRMPKDFPPFPQKLKFREPQREERICLVTTNFQTKSMSSMVSDTSCTFPSGDGIFWKHWIQTKDGQCGSPLVSTRDGFIVGIHSASNFTNTNNYFTSVPKNFMELLTNQEAQQWVSGWRLNADSVLWGGHKVFMVKPEEPFQPVKEATQL [G28L],0.102,0.0827,0.0853,0.0974,0.0873,0.0812,0.0864,0.0986,0.0883,0.0835,0.0844,–,0.118,–,0.0975,0.0746,–,0.0815,0.0982
